# The list shows a part of the results.
# B1: rCnSL-proA (Clitocybe nebularis) (protein)
# chain: AAFFSLVVLLALLPFGIHASALPSTELTPRVNPNLPGPNDVFVGFRGTNNIVGAIYEKDGIKDTPLNNGADAEMGPGSYITDGLFTARIFASGSAGNNPGTTATVCKIYASGVQWRGAPKGYIPVAYFGNGPTAEQRRQTYLRTLGLPGTAIRFGNLNTNPGQGPTAPRQMVVPPGPLRSLLKASCFPAADTRLPQTLHYFEKRVDWNIITAADSQTWGH
# What was measured:
# Experiment in all cases: glycan array binding signal (z-score within array); higher = stronger binding
# Conditions in all cases: glycan notation: IUPAC condensed, linker removed
# GlcNAc(b1-3)Man = target: GlcNAc(b1-3)Man
# Method in brief: (§1)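 Columns mapping to the same glycan were averaged after glycan names were converted to IUPAC-condensed notation. The data come from 3228 arrays in the Consortium for Functional Glycomics database, limited to those with an available protein sequence. Binding is reported as a within-array Z-score averaged across arrays of one protein sequence and across linkers.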
# [1] = target: GlcNAc(b1-3)[GlcNAc(b1-4)][GlcNAc(b1-6)]GlcNAc
# Method in brief: as §1
# [2] = target: GlcNAc(b1-3)[GlcNAc(b1-6)]Gal(b1-4)GlcNAc
# Method in brief: as §1
# [3] = target: GlcNAc(b1-3)[GlcNAc(b1-6)]GalNAc
# Method in brief: as §1
# [4] = target: GlcNAc(b1-4)Gal(b1-4)GlcNAc
# Method in brief: as §1
# GlcNAc(b1-4)GlcNAc = target: GlcNAc(b1-4)GlcNAc
# Method in brief: as §1
# [5] = target: GlcNAc(b1-4)GlcNAc(b1-4)GlcNAc
# Method in brief: as §1
# [6] = target: GlcNAc(b1-4)GlcNAc(b1-4)GlcNAc(b1-4)GlcNAc(b1-4)GlcNAc
# Method in brief: as §1
# [7] = target: GlcNAc(b1-4)GlcNAc(b1-4)GlcNAc(b1-4)GlcNAc(b1-4)GlcNAc(b1-4)GlcNAc
# Method in brief: as §1
# [8] = target: GlcNAc(b1-4)[GlcNAc(b1-6)]GalNAc
# Method in brief: as §1
# [9] = target: GlcNAc(b1-6)Gal(b1-4)GlcNAc
# Method in brief: as §1
# GlcNAc(b1-6)GalNAc = target: GlcNAc(b1-6)GalNAc
# Method in brief: as §1
# [10] = target: GlcNAc6S(b1-3)Gal(b1-4)GlcNAc
# Method in brief: as §1
# Kdn(a2-3)Gal(b1-3)GalNAc = target: Kdn(a2-3)Gal(b1-3)GalNAc
# Method in brief: as §1
# Kdn(a2-3)Gal(b1-3)GlcNAc = target: Kdn(a2-3)Gal(b1-3)GlcNAc
# Method in brief: as §1
# Kdn(a2-3)Gal(b1-4)Glc = target: Kdn(a2-3)Gal(b1-4)Glc
# Method in brief: as §1
# Kdn(a2-3)Gal(b1-4)GlcNAc = target: Kdn(a2-3)Gal(b1-4)GlcNAc
# Method in brief: as §1
# [11] = target: Kdn(a2-3)Gal(b1-4)[Fuc(a1-3)]GlcNAc
# Method in brief: as §1
# Kdn(a2-6)Gal(b1-4)GlcNAc = target: Kdn(a2-6)Gal(b1-4)GlcNAc
# Method in brief: as §1
# [12] = target: Man(a1-2)Man(a1-2)Man(a1-3)Man
# Method in brief: as §1
# [13] = target: Man(a1-2)Man(a1-2)Man(a1-6)[Man(a1-3)]Man
# Method in brief: as §1
# Man(a1-2)Man(a1-3)Man = target: Man(a1-2)Man(a1-3)Man
# Method in brief: as §1
# [14] = target: Man(a1-2)Man(a1-3)[Man(a1-2)Man(a1-6)]Man
# Method in brief: as §1
binder,measurement,setting,value
B1,glycan array binding signal (z-score),GlcNAc(b1-3)Man,0.735
same,glycan array binding signal (z-score),[1],-0.363
same,glycan array binding signal (z-score),[2],-0.723
same,glycan array binding signal (z-score),[3],-0.541
same,glycan array binding signal (z-score),[4],0.712
same,glycan array binding signal (z-score),GlcNAc(b1-4)GlcNAc,-0.274
same,glycan array binding signal (z-score),[5],-0.208
same,glycan array binding signal (z-score),[6],-0.146
same,glycan array binding signal (z-score),[7],-0.305
same,glycan array binding signal (z-score),[8],-0.002
same,glycan array binding signal (z-score),[9],-0.312
same,glycan array binding signal (z-score),GlcNAc(b1-6)GalNAc,-0.195
same,glycan array binding signal (z-score),[10],0.135
same,glycan array binding signal (z-score),Kdn(a2-3)Gal(b1-3)GalNAc,-0.192
same,glycan array binding signal (z-score),Kdn(a2-3)Gal(b1-3)GlcNAc,-0.881
same,glycan array binding signal (z-score),Kdn(a2-3)Gal(b1-4)Glc,0.223
same,glycan array binding signal (z-score),Kdn(a2-3)Gal(b1-4)GlcNAc,-0.262
same,glycan array binding signal (z-score),[11],0.026
same,glycan array binding signal (z-score),Kdn(a2-6)Gal(b1-4)GlcNAc,-0.099
same,glycan array binding signal (z-score),[12],-0.433
same,glycan array binding signal (z-score),[13],-0.007
same,glycan array binding signal (z-score),Man(a1-2)Man(a1-3)Man,-0.482
same,glycan array binding signal (z-score),[14],-0.986

# From the supplement of paper PMC8728848
